Measurements published in US11618753B2 (priority 2018, dated 2023).

system: MLKL phosphorylation, HT29-L23 human colorectal adenocarcinoma cells; assay: cells; settings: read-out: pMLKL HCS Cell Assay (IC50, uM)

Structure (SMILES) | IC50 [µM]
Cc1ncc(-c2cc(C(F)(F)F)c3c(N)ncnn23)cc1C(=O)N1CCC[C@@H](Cc2cccc(F)c2)C1 [Example 173, 7-{5-[(3S)-3-[(3-fluorophenyl)methyl]piperidine-1-carbonyl]-6-methylpyridin-3-yl}-5-(trifluoromethyl)pyrrolo[2,1-f][1,2,4]triazin-4-amine] | 0.0057
Cc1ncc(-c2cc(C(F)(F)F)c3c(N)ncnn23)cc1C(=O)N1CCC[C@H](Cc2ccc(F)cc2)C1 [Example 174, 7-{5-[(3R)-3-[(4-fluorophenyl)methyl]piperidine-1-carbonyl]-6-methylpyridin-3-yl}-5-(trifluoromethyl)pyrrolo[2,1-f][1,2,4]triazin-4-amine] | 0.0066
Cc1ncc(-c2cc(C(F)(F)F)c3c(N)ncnn23)cc1C(=O)N[C@@H]1CN(C(=O)C2CCCC2)C[C@@H]1C [Example 175, 5-[4-amino-5-(trifluoromethyl)pyrrolo[2,1-f][1,2,4]triazin-7-yl]-N-[(3S,4S)-1-cyclopentanecarbonyl-4-methylpyrrolidin-3-yl]-2-methylpyridine-3-carboxamide] | 0.029
Cc1ncc(-c2cc(C(F)(F)F)c3c(N)ncnn23)cc1C(=O)Nc1cnn(CC(F)(F)F)c1 [Example 176, 5-[4-amino-5-(trifluoromethyl)pyrrolo[2,1-f][1,2,4]triazin-7-yl]-2-methyl-N-[1-(2,2,2-trifluoroethyl)-1H-pyrazol-4-yl]pyridine-3-carboxamide] | 0.066
CO[C@@H](CCNC(=O)c1cc(-c2cc(C(F)(F)F)c3c(N)ncnn23)cnc1C)c1ccc(Cl)cc1 [Example 177, 5-[4-amino-5-(trifluoromethyl)pyrrolo[2,1-f][1,2,4]triazin-7-yl]-N-[(3S)-3-(4-chlorophenyl)-3-methoxypropyl]-2-methylpyridine-3-carboxamide] | 0.001
Cc1ncc(-c2cc(C(F)(F)F)c3c(N)ncnn23)cc1C(=O)NCCN1CCC(c2ccccc2)C1 (centres unmarked) [Example 178, 5-[4-amino-5-(trifluoromethyl)pyrrolo[2,1-f][1,2,4]triazin-7-yl]-2-methyl-N-[2-(3-phenylpyrrolidin-1-yl)ethyl]pyridine-3-carboxamide] | 0.33
Cc1ncc(-c2cc(C(F)(F)F)c3c(N)ncnn23)cc1C(=O)NCCN1CCCC(c2ccccc2)C1 (centres unmarked) [Example 179, 5-[4-amino-5-(trifluoromethyl)pyrrolo[2,1-f][1,2,4]triazin-7-yl]-2-methyl-N-[2-(3-phenylpiperidin-1-yl)ethyl]pyridine-3-carboxamide] | 0.048
Nc1ncnn2c(-c3cnc(C(F)(F)F)c(C(=O)Nc4cnn(Cc5ccccc5)c4)c3)cc(C(F)(F)F)c12 [Example 184, 5-[4-amino-5-(trifluoromethyl)pyrrolo[2,1-f][1,2,4]triazin-7-yl]-N-(1-benzyl-1H-pyrazol-4-yl)-2-(trifluoromethyl)pyridine-3-carboxamide] | 0.0018
CC(CCNC(=O)c1cc(-c2cc(C(F)(F)F)c3c(N)ncnn23)ccc1F)c1ccccc1 (centres unmarked) [Example 243, 5-[4-amino-5-(trifluoromethyl)pyrrolo[2,1-f][1,2,4]triazin-7-yl]-2-fluoro-N-(3-phenylbutyl)benzamide] | 0.045
Nc1ncnn2c(-c3ccc(F)c(C(=O)NCc4ccccc4Oc4ccccc4)c3)cc(C(F)(F)F)c12 [Example 244, 5-[4-amino-5-(trifluoromethyl)pyrrolo[2,1-f][1,2,4]triazin-7-yl]-2-fluoro-N-[(2-phenoxyphenyl)methyl]benzamide] | 0.258
Nc1ncnn2c(-c3ccc(F)c(C(=O)NCCC(O)c4ccccc4)c3)cc(C(F)(F)F)c12 (centres unmarked) [Example 245, 5-[4-amino-5-(trifluoromethyl)pyrrolo[2,1-f][1,2,4]triazin-7-yl]-2-fluoro-N-(3-hydroxy-3-phenylpropyl)benzamide] | 0.16
Nc1ncnn2c(-c3ccc(F)c(C(=O)NCC[C@@H](O)c4ccc(Cl)cc4)c3)cc(C(F)(F)F)c12 [Example 246, 5-[4-amino-5-(trifluoromethyl)pyrrolo[2,1-f][1,2,4]triazin-7-yl]-N-[(3R)-3-(4-chlorophenyl)-3-hydroxypropyl]-2-fluorobenzamide] | 0.081
Nc1ncnn2c(-c3ccc(F)c(C(=O)NCC[C@H](O)c4ccc(Cl)cc4)c3)cc(C(F)(F)F)c12 [Example 248, 5-[4-amino-5-(trifluoromethyl)pyrrolo[2,1-f][1,2,4]triazin-7-yl]-N-[(3S)-3-(4-chlorophenyl)-3-hydroxypropyl]-2-fluorobenzamide] | 0.026
Nc1ncnn2c(-c3ccc(F)c(C(=O)NCCC(O)(c4ccccc4)C(F)(F)F)c3)cc(C(F)(F)F)c12 (centres unmarked) [Example 249, 5-[4-amino-5-(trifluoromethyl)pyrrolo[2,1-f][1,2,4]triazin-7-yl]-2-fluoro-N-(4,4,4-trifluoro-3-hydroxy-3-phenylbutyl)benzamide] | 0.201
Nc1ncnn2c(-c3ccc(F)c(C(=O)NCC4CCCOC4c4ccccc4)c3)cc(C(F)(F)F)c12 (centres unmarked) [Example 250, 5-[4-amino-5-(trifluoromethyl)pyrrolo[2,1-f][1,2,4]triazin-7-yl]-2-fluoro-N-[(2-phenyloxan-3-yl)methyl]benzamide] | 0.072
CC(C)(C)OC(=O)N1CC[C@H](NC(=O)c2cc(-c3cc(C(F)(F)F)c4c(N)ncnn34)ccc2F)C1 [Example 251, tert-butyl (3S)-3-{5-[4-amino-5-(trifluoromethyl)pyrrolo[2,1-f][1,2,4]triazin-7-yl]-2-fluorobenzamido}pyrrolidine-1-carboxylate] | 0.223
Nc1ncnn2c(-c3ccc(F)c(C(=O)N[C@@H]4CN(C(=O)C5CC(F)C5)C[C@@H]4F)c3)cc(C(F)(F)F)c12 (stereo partly drawn) [Example 252, 5-[4-amino-5-(trifluoromethyl)pyrrolo[2,1-f][1,2,4]triazin-7-yl]-2-fluoro-N-[(3R,4S)-4-fluoro-1-(3-fluorocyclobutanecarbonyl)pyrrolidin-3-yl]benzamide] | 0.038
Nc1ncnn2c(-c3ccc(F)c(C(=O)N[C@@H]4CN(C(=O)C5CC(F)(F)C5)C[C@@H]4F)c3)cc(C(F)(F)F)c12 [Example 254, 5-[4-amino-5-(trifluoromethyl)pyrrolo[2,1-f][1,2,4]triazin-7-yl]-N-[(3R,4S)-1-(3,3-difluorocyclobutanecarbonyl)-4-fluoropyrrolidin-3-yl]-2-fluorobenzamide] | 0.038
Nc1ncnn2c(-c3ccc(F)c(C(=O)N[C@@H]4CN(C(=O)C5CCC(F)(F)CC5)C[C@@H]4F)c3)cc(C(F)(F)F)c12 [Example 255, 5-[4-amino-5-(trifluoromethyl)pyrrolo[2,1-f][1,2,4]triazin-7-yl]-N-[(3R,4S)-1-(4,4-difluorocyclohexanecarbonyl)-4-fluoropyrrolidin-3-yl]-2-fluorobenzamide] | 0.093
Nc1ncnn2c(-c3ccc(F)c(C(=O)N[C@@H]4CN(C(=O)c5ccc(F)cc5)C[C@@H]4F)c3)cc(C(F)(F)F)c12 [Example 256, 5-[4-amino-5-(trifluoromethyl)pyrrolo[2,1-f][1,2,4]triazin-7-yl]-2-fluoro-N-[(3R,4S)-4-fluoro-1-(4-fluorobenzoyl)pyrrolidin-3-yl]benzamide] | 0.064
Nc1ncnn2c(-c3ccc(F)c(C(=O)N[C@@H]4CN(C(=O)C5CCC(F)(F)C5)C[C@@H]4F)c3)cc(C(F)(F)F)c12 (stereo partly drawn) [Example 257, 5-[4-amino-5-(trifluoromethyl)pyrrolo[2,1-f][1,2,4]triazin-7-yl]-N-[(3R,4S)-1-(3,3-difluorocyclopentanecarbonyl)-4-fluoropyrrolidin-3-yl]-2-fluorobenzamide] | 0.032
Nc1ncnn2c(-c3ccc(F)c(C(=O)N[C@@H]4CN(C(=O)C5CCOCC5)C[C@@H]4F)c3)cc(C(F)(F)F)c12 [Example 258, 5-[4-amino-5-(trifluoromethyl)pyrrolo[2,1-f][1,2,4]triazin-7-yl]-2-fluoro-N-[(3R,4S)-4-fluoro-1-(oxane-4-carbonyl)pyrrolidin-3-yl]benzamide] | 0.194
Nc1ncnn2c(-c3ccc(F)c(C(=O)N[C@@H]4CN(C(=O)C5CC5(F)F)C[C@@H]4F)c3)cc(C(F)(F)F)c12 (stereo partly drawn) [Example 259, 5-[4-amino-5-(trifluoromethyl)pyrrolo[2,1-f][1,2,4]triazin-7-yl]-N-[(3R,4S)-1-(2,2-difluorocyclopropanecarbonyl)-4-fluoropyrrolidin-3-yl]-2-fluorobenzamide] | 0.02
Nc1ncnn2c(-c3ccc(F)c(C(=O)N4CCOC(Cc5ccccc5)C4)c3)cc(C(F)(F)F)c12 (centres unmarked) [Example 260, 7-[3-(2-benzylmorpholine-4-carbonyl)-4-fluorophenyl]-5-(trifluoromethyl)pyrrolo[2,1-f][1,2,4]triazin-4-amine] | 0.191
COc1ncc(-c2cc(C(F)(F)F)c3c(N)ncnn23)cc1C(=O)N[C@H]1CCN(C(=O)CC(C)(C)C)C1 [Example 261, 5-[4-amino-5-(trifluoromethyl)pyrrolo[2,1-f][1,2,4]triazin-7-yl]-N-[(3S)-1-(3,3-dimethylbutanoyl)pyrrolidin-3-yl]-2-methoxypyridine-3-carboxamide] | 0.315
COc1ncc(-c2cc(C(F)(F)F)c3c(N)ncnn23)cc1C(=O)N[C@H]1CCN(C(=O)C2CCCCC2)C1 [Example 263] | 0.102
COc1ncc(-c2cc(C(F)(F)F)c3c(N)ncnn23)cc1C(=O)N[C@H]1CCN(C(=O)C2CCCC2)C1 [Example 264, 5-[4-amino-5-(trifluoromethyl)pyrrolo[2,1-f][1,2,4]triazin-7-yl]-N-[(3S)-1-cyclopentanecarbonylpyrrolidin-3-yl]-2-methoxypyridine-3-carboxamide] | 0.104
COc1ncc(-c2cc(C(F)(F)F)c3c(N)ncnn23)cc1C(=O)N[C@H]1CCN(C(=O)C2CCC(F)(F)C2)C1 (stereo partly drawn) [Example 267, 5-[4-amino-5-(trifluoromethyl)pyrrolo[2,1-f][1,2,4]triazin-7-yl]-N-[(3S)-1-(3,3-difluorocyclopentanecarbonyl)pyrrolidin-3-yl]-2-methoxypyridine-3-carboxamide] | 0.185
Nc1ncnn2c(-c3cnc(F)c(C(=O)Nc4cnn(CC5CC5)c4)c3)cc(C(F)(F)F)c12 [Example 268, 5-[4-amino-5-(trifluoromethyl)pyrrolo[2,1-f][1,2,4]triazin-7-yl]-N-[1-(cyclopropylmethyl)-1H-pyrazol-4-yl]-2-fluoropyridine-3-carboxamide] | 0.122
